Here are results for 32 sequences from publication PMC12820563, “FoxP3 forms a head-to-head dimer in vivo and stabilizes its multimerization on adjacent microsatellites”.

The other results are listed elsewhere or left out.

In this test the target is T1, MBP-FoxP1dN (Mus musculus, UniProt P58462 326-579).
T1 sequence: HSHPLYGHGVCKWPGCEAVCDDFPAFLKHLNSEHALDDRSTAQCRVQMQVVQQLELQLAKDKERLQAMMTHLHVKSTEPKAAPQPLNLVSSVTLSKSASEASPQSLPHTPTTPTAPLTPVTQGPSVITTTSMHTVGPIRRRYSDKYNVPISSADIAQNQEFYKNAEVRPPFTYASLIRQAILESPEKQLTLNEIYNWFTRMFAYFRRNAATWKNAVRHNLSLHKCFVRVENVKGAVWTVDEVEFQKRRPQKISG
As to the kind of experiment: PD-seq (MBP pull-down with sequencing); 20 mM Tris-HCl pH 7.5, 100 mM NaCl, 1.5 mM MgCl2, 0.4 uM protein, 0.1 uM dsDNA library, 30 min, room temperature, amylose pull-down; high values mean tight binding. The conditions noted are these: protein: recombinant; tags: His6-MBP; chain copies: 2; dsDNA, one strand shown. The essentials: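 Binding is given as reads-per-million enrichment, pull-down over input, with replicates pooled. The bait was an N-terminus-lacking mouse FoxP3 or FoxP1 fragment with a His6-MBP tag, expressed in E. coli and used at 0.4 µM with 0.1 µM Klenow-filled degenerate double-stranded DNA library for 30 min at room temperature in Tris pH 7.5 buffer with NaCl and MgCl2. Amylose resin pull-down with three washes was followed by proteinase K release, PCR barcoding and Illumina sequencing.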
In the case of “GATGATTGTTCTCCCAGCTGATGAATTGTCAAAATCGAGTAAACAAATTTTCCTAATCTTTCTGTTCAAGCGCCATCTAC”, the binding signal was 1.12 RPM ratio (pull-down/input). Next, “GATGATTGTTCTCCCAGCTGATGAATTAGGCACTTCGAGTAAACAAATTTTCCTAATCTTTCTGTTCAAGCGCCATCTAC”: 0.916 RPM ratio (pull-down/input); “GATGATTGTTCTCCCAGCTGATGAATTGTTTATTTCGAGTAAACAAATTTTCCTAATCTTTCTGTTCAAGCGCCATCTAC”: 2.77 RPM ratio (pull-down/input).

Turning to “GATGATTGTTCTCCCAGCTGATGAATTCCTGCTTTCGAGTAAACAAATTTTCCTAATCTTTCTGTTCAAGCGCCATCTAC”, the binding signal was 1.19 RPM ratio (pull-down/input). As for “GATGATTGTTCTCCCAGCTGATGAATTTGATGTGTCGAGTAAACAAATTTTCCTAATCTTTCTGTTCAAGCGCCATCTAC”, the figure is 1.16 RPM ratio (pull-down/input); as for “GATGATTGTTCTCCCAGCTGATGAATTGAGATTTTCGAGTAAACAAATTTTCCTAATCTTTCTGTTCAAGCGCCATCTAC”, 0.923 RPM ratio (pull-down/input); as for “GATGATTGTTCTCCCAGCTGATGAATTGGCCAGCTCGAGTAAACAAATTTTCCTAATCTTTCTGTTCAAGCGCCATCTAC”, 0.731 RPM ratio (pull-down/input). Next, “GATGATTGTTCTCCCAGCTGATGAATTGACCGGTTCGAGTAAACAAATTTTCCTAATCTTTCTGTTCAAGCGCCATCTAC”: 0.902 RPM ratio (pull-down/input); “GATGATTGTTCTCCCAGCTGATGAATTTGACTTTTCGAGTAAACAAATTTTCCTAATCTTTCTGTTCAAGCGCCATCTAC”: 0.876 RPM ratio (pull-down/input). As for “GATGATTGTTCTCCCAGCTGATGAATTTCTCGCCTCGAGTAAACAAATTTTCCTAATCTTTCTGTTCAAGCGCCATCTAC”, the figure is 0.885 RPM ratio (pull-down/input); as for “GATGATTGTTCTCCCAGCTGATGAATTGACAAGCTCGAGTAAACAAATTTTCCTAATCTTTCTGTTCAAGCGCCATCTAC”, 1.15 RPM ratio (pull-down/input). For “GATGATTGTTCTCCCAGCTGATGAATTCCAGCGTTCGAGTAAACAAATTTTCCTAATCTTTCTGTTCAAGCGCCATCTAC”, the binding signal is 0.883 RPM ratio (pull-down/input). Take “GATGATTGTTCTCCCAGCTGATGAATTGTCATGCTCGAGTAAACAAATTTTCCTAATCTTTCTGTTCAAGCGCCATCTAC”: the binding signal is 1.07 RPM ratio (pull-down/input).

Turning to “GATGATTGTTCTCCCAGCTGATGAATTTGAGTGATCGAGTAAACAAATTTTCCTAATCTTTCTGTTCAAGCGCCATCTAC”, the binding signal is 0.906 RPM ratio (pull-down/input). Next, “GATGATTGTTCTCCCAGCTGATGAATTCAGGGATTCGAGTAAACAAATTTTCCTAATCTTTCTGTTCAAGCGCCATCTAC”: 0.875 RPM ratio (pull-down/input); “GATGATTGTTCTCCCAGCTGATGAATTTCCACCCTCGAGTAAACAAATTTTCCTAATCTTTCTGTTCAAGCGCCATCTAC”: 0.882 RPM ratio (pull-down/input); “GATGATTGTTCTCCCAGCTGATGAATTTCCGAGTTCGAGTAAACAAATTTTCCTAATCTTTCTGTTCAAGCGCCATCTAC”: 0.813 RPM ratio (pull-down/input). Next, “GATGATTGTTCTCCCAGCTGATGAATTCGTACAGTCGAGTAAACAAATTTTCCTAATCTTTCTGTTCAAGCGCCATCTAC”: 0.897 RPM ratio (pull-down/input); “GATGATTGTTCTCCCAGCTGATGAATTGTGGTGCTCGAGTAAACAAATTTTCCTAATCTTTCTGTTCAAGCGCCATCTAC”: 1.1 RPM ratio (pull-down/input); “GATGATTGTTCTCCCAGCTGATGAATTTCGTCCGTCGAGTAAACAAATTTTCCTAATCTTTCTGTTCAAGCGCCATCTAC”: 0.836 RPM ratio (pull-down/input). As for “GATGATTGTTCTCCCAGCTGATGAATTCCCCCCTTCGAGTAAACAAATTTTCCTAATCTTTCTGTTCAAGCGCCATCTAC”, the figure is 0.782 RPM ratio (pull-down/input). On to “GATGATTGTTCTCCCAGCTGATGAATTGCTATAATCGAGTAAACAAATTTTCCTAATCTTTCTGTTCAAGCGCCATCTAC”, for which the binding signal was 1.34 RPM ratio (pull-down/input). Next, “GATGATTGTTCTCCCAGCTGATGAATTATCCTGATCGAGTAAACAAATTTTCCTAATCTTTCTGTTCAAGCGCCATCTAC”: 0.864 RPM ratio (pull-down/input); “GATGATTGTTCTCCCAGCTGATGAATTTTTGCACTCGAGTAAACAAATTTTCCTAATCTTTCTGTTCAAGCGCCATCTAC”: 0.891 RPM ratio (pull-down/input); “GATGATTGTTCTCCCAGCTGATGAATTATTTCGTTCGAGTAAACAAATTTTCCTAATCTTTCTGTTCAAGCGCCATCTAC”: 1.13 RPM ratio (pull-down/input). As for “GATGATTGTTCTCCCAGCTGATGAATTCCTCCCGTCGAGTAAACAAATTTTCCTAATCTTTCTGTTCAAGCGCCATCTAC”, the figure is 0.793 RPM ratio (pull-down/input); as for “GATGATTGTTCTCCCAGCTGATGAATTTTTGCTATCGAGTAAACAAATTTTCCTAATCTTTCTGTTCAAGCGCCATCTAC”, 1.21 RPM ratio (pull-down/input); as for “GATGATTGTTCTCCCAGCTGATGAATTACCCTCATCGAGTAAACAAATTTTCCTAATCTTTCTGTTCAAGCGCCATCTAC”, 0.938 RPM ratio (pull-down/input). Next, “GATGATTGTTCTCCCAGCTGATGAATTCCCCGGGTCGAGTAAACAAATTTTCCTAATCTTTCTGTTCAAGCGCCATCTAC”: 0.71 RPM ratio (pull-down/input); “GATGATTGTTCTCCCAGCTGATGAATTGCTTATGTCGAGTAAACAAATTTTCCTAATCTTTCTGTTCAAGCGCCATCTAC”: 1.4 RPM ratio (pull-down/input); “GATGATTGTTCTCCCAGCTGATGAATTTGCCGTGTCGAGTAAACAAATTTTCCTAATCTTTCTGTTCAAGCGCCATCTAC”: 0.872 RPM ratio (pull-down/input). For “GATGATTGTTCTCCCAGCTGATGAATTAGGTTGTTCGAGTAAACAAATTTTCCTAATCTTTCTGTTCAAGCGCCATCTAC”, the binding signal was 1.13 RPM ratio (pull-down/input).
